In PMC12891993, “Bio-orthogonal chemistry-based strategy to Turn-OFF CRISPR-Cas9 activity in solution and live cells” (NAR Molecular Medicine, 2026):
Residues, ends and D or L forms follow the SMILES beside them. *: point of attachment. X1 = O=C(COC1CC/C=C/CCC1)*

Legend:
[1] = test system: sgRNA–Cas9 complex (Tz-tagged sgRNA1); assay: Impact of TCO-modified CRISPR suppressors on Cas9-enabled nuclease activity, linearized pBR322 plasmid; assay type: biochemical; details: 16 h, duplicate
Procedure: Upon completion of their synthesis, the TCO-modified CRISPR suppressors were assessed for their ability to control the Cas9-assisted nuclease activity of sgRNA1-(U4Tz1) and sgRNA1-(U4Tz2). […] In parallel, the same experiments were done in the presence of the TCO-modified CRISPR suppressors. The gel data were quantified and plotted as a bar graph in Fig. 7B.

[2] = molecular target: sgRNA–Cas9 complex (sgRNA2 and Tz-tagged sgRNA2) (Streptococcus pyogenes serotype M1, UniProt Q99ZW2); assay: Impact of TCO-modified CRISPR suppressors on Cas9-enabled nuclease activity, linearized eGFP-N1 plasmid; assay type: biochemical; details: 16 h, duplicate
UniProt Q99ZW2, sequence (Q99ZW2 whole entry): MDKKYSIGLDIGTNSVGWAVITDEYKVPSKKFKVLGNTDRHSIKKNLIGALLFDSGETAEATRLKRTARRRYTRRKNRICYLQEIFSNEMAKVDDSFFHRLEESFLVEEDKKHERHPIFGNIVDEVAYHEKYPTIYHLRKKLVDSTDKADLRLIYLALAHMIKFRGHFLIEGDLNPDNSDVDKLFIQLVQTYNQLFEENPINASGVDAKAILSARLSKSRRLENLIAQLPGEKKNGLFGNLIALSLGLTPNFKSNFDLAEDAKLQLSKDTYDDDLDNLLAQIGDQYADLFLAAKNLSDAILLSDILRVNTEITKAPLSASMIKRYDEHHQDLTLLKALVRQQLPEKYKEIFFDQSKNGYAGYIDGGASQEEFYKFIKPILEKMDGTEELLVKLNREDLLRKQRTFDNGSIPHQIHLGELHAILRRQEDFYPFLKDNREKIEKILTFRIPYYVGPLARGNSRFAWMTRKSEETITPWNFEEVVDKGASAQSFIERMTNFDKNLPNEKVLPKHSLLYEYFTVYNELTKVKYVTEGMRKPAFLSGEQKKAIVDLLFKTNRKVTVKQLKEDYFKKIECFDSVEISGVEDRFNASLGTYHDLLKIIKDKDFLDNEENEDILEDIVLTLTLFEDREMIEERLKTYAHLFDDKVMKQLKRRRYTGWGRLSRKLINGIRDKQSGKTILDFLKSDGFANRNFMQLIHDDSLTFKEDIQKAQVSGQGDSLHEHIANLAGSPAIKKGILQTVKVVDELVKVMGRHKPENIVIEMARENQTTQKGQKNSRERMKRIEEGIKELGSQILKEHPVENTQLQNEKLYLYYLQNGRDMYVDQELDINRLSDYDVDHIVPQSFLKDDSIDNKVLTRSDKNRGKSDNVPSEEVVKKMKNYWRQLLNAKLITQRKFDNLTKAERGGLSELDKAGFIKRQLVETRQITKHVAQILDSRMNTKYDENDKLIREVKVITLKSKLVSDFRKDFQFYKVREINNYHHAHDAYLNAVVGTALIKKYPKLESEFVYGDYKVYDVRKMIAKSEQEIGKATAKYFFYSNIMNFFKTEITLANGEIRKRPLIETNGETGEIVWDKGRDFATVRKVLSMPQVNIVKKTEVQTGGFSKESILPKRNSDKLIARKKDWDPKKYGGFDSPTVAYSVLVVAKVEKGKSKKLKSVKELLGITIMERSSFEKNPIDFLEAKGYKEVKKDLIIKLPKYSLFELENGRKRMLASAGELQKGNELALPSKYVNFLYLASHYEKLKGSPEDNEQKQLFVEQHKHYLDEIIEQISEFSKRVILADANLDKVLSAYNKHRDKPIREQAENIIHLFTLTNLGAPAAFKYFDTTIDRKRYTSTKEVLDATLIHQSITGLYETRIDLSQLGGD
Text: The gel data were quantified and plotted as a bar graph in Fig. 8B. […] In a control experiment, we tested the impact of TCO-modified CRISPR suppressors on the activity of the unmodified sgRNA2 (Supplementary Fig. S12). […] Inactivation of Tz-tagged sgRNAs can be best achieved using either TCO-CPP-RRWQW or TCO-CPP-RLRWR.

[3] = suppressor added to Cas9 + sgRNA1-(U4Tz1) + linearized pBR322 plasmid
[4] = suppressor added to Cas9 + sgRNA1-(U4Tz2) + linearized pBR322 plasmid
[5] = suppressor added to Cas9 + sgRNA2-(U4Tz1) + linearized eGFP-N1 plasmid
[6] = suppressor added to Cas9 + sgRNA2-(U4Tz2) + linearized eGFP-N1 plasmid

Row | SMILES | residual nuclease activity [1, 3] | residual nuclease activity [1, 4] | residual nuclease activity [2, 5] | residual nuclease activity [2, 6]
1 | N=C(N)NCCC[C@H](NC(=O)COC1CC/C=C/CCC1)C(=O)N[C@@H](CCCNC(=N)N)C(=O)N[C@@H](Cc1c[nH]c2ccccc12)C(=O)N[C@@H](CCC(N)=O)C(=O)N[C@@H](Cc1c[nH]c2ccccc12)C(=O)O (some centres unmarked) [TCO-CPP-RRWQW] (X1-RRWQW-OH) | completely inhibited activity | completely inhibited activity | completely inhibited nuclease activity | 13%
2 | CC(C)C[C@H](NC(=O)[C@H](CCCNC(=N)N)NC(=O)COC1CC/C=C/CCC1)C(=O)N[C@@H](CCCNC(=N)N)C(=O)N[C@@H](Cc1c[nH]c2ccccc12)C(=O)N[C@@H](CCCNC(=N)N)C(=O)O (some centres unmarked) [TCO-CPP-RLRWR] (X1-RLRWR-OH) | completely inhibited activity | completely inhibited activity | completely inhibited nuclease activity | completely inhibited nuclease activity
